Experimental data: the supplement of paper PMC4723716
The full ranking holds about 3,600 compounds; the median of “viability index relative to DMSO control” is about 0.81, and the lowest 2% start at about 0.13. Some of the results follow.

Each molecule was assayed on Plasmodium falciparum NF54 stage V gametocytes (assay: viability index relative to DMSO control (fraction); higher = less gametocyte killing). Details: 1.25 µM, incubation time: 72 h.
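Further: 384-well serum-free SaLSSA: MitoTracker Red CMXRos staining with saponin lysis, high-content imaging, treated-well particle count divided by plate-mean count of DMSO wells.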

First: CCCOC(=O)C1=C(C)NC2=C(C(=O)CC(c3ccc(OC)c(OC)c3)C2)C1c1ccc(O)c(OCC)c1 (stereo unspecified)
Second: COC(=O)C1=C(C)NC2=C(C(=O)CC(c3ccc(OC)c(OC)c3)C2)C1c1ccccc1C (stereo unspecified)
The viability index of the first is higher: 0.821 for the first, 0.653 for the second.

First: CCOC(=O)c1c(NC(=O)Cc2ccc([N+](=O)[O-])cc2)sc2c1CCCC2
Second: CCOC(=O)N1CCN(S(=O)(=O)c2ccc(C(=O)Nc3sc4c(c3C(N)=O)CCN(CC)C4)cc2)CC1
The viability index of the first is lower: 1.02 for the first, 1.2 for the second.

Compared with `CCC(=O)N(C1=C(NC)C(=O)c2ccccc2C1=O)C(C)C`, `CC(C)N(C(=O)Cn1ccc(=N)c2ccccc21)C(C)C` is higher in viability index: 0.601 for the first, 0.877 for the second.

First: C[n+]1ccc(C=Cc2ccccc2F)c2ccccc21
Second: Cc1cc(Nc2cccc(F)c2)nc(NCc2ccccc2)n1
The viability index of the first is higher: 0.911 for the first, 0.68 for the second.

Going from `N#C/C(=C\c1cc2ccccc2nc1Cl)c1nc(-c2ccc(Cl)c(Cl)c2)cs1` to `OCCNc1nc(Nc2ccc(Cl)c(Cl)c2)nc2ccccc12`, the viability index falls from 1.01 to 0.528.

Compared with `CCOC(=O)C1=C(c2ccccc2)N=c2sc(=Cc3cc(C)n(-c4ccc(F)cc4)c3C)c(=O)n2C1c1cccc(OC)c1OC` (stereo unspecified), `CCOC(=O)c1ccc(NC(=O)c2cc(-c3ccccc3)nc3ccc(C)cc23)cc1` is higher in viability index: 0.698 for the first, 0.804 for the second.

First: CC(C)OC(=O)c1cccnc1SCC(=O)Nc1ccc(C(F)(F)F)cc1Cl
Second: CCC(C)NC(=O)CSc1nnc(-c2cccnc2)n1-c1ccc(Cl)cc1 (stereo unspecified)
The viability index of the first is higher: 1.36 for the first, 0.71 for the second.

Going from `COc1ccccc1NC1=CC(=NS(=O)(=O)c2ccccc2)c2ccccc2C1=O` to `Cc1ccc(C)c(S(=O)(=O)N=C2C=C(SCC(=O)O)C(=O)c3ccccc32)c1`, the viability index rises from 0.247 to 0.861.

First: O=C(CNC(=O)c1ccccc1)Oc1ccc(Cl)cc1
Second: O=C(Nc1ccccc1Cl)c1cc2ccccc2cc1O
The viability index of the first is higher: 0.779 for the first, 0.707 for the second.

First: CCC(Sc1nc2ccccc2n1C(C)=O)C(=O)NC1=NN=C(c2ccc(Br)cc2)CS1 (stereo unspecified)
Second: CCOc1ccc2nc(C)cc(Nc3ccc(Br)cc3)c2c1
The viability index of the first is lower: 0.928 for the first, 1.16 for the second.

First: CCc1ccc2[nH]c(=O)c(CN(Cc3ccc(OC)cc3)C(=S)NCCCN(CC)CC)cc2c1
Second: CCc1ccc2[nH]c(=O)c(CN(CCCN(CC)CC)C(=S)NCCCN(C)C)cc2c1
The viability index of the first is lower: 0.753 for the first, 0.875 for the second.

Going from `C=CCN1C(=O)/C(=C\c2ccccc2)C(C(=O)OC)=C1C` to `CC(C=NNC(=O)c1ccco1)=Cc1ccccc1`, the viability index rises from 0.521 to 0.876.

Compared with `CN(C)CCNc1cc(-c2ccc3ccccc3c2)nc2ccccc12`, `CCN(CC)CCCNc1ccnc2cc3ccccc3cc12` is higher in viability index: 0.0331 for the first, 0.789 for the second.

First: COc1cccc(N2C(N)=NC(N)=NC2(C)C)c1
Second: CCOc1ccc(N2C(=O)c3ccccc3NC2(C)C)cc1
The viability index of the first is higher: 1.02 for the first, 0.834 for the second.

`C=C(C)C(=O)OCCc1ccc(O)c(-n2nc3ccccc3n2)c1` and `Cc1cc(Nc2ccc([N+](=O)[O-])cc2O)nc2ccccc12` are the same in viability index: 0.751 for the first, 0.751 for the second.

Going from `O=C(c1ccc([N+](=O)[O-])cc1[N+](=O)[O-])N1CCCCC1` to `O=C(c1cccc(Cl)c1)N1CCN(c2ccc([N+](=O)[O-])c(NC3CC3)c2)CC1`, the viability index falls from 1.06 to 0.598.

Compared with `COc1ccc2nc(C)cc(Nc3ccc(Br)cc3)c2c1`, `Cc1ccc(Nc2cc(C)nc(NCc3ccccc3)n2)cc1` is lower in viability index: 0.978 for the first, 0.457 for the second.

Compared with `COc1ccc(-n2nc(C(C)(C)C)cc2NC(=O)CN(C(=O)c2ccc(C(C)(C)C)cc2)C(C)C)cc1`, `CC(C)(C)c1ccc(Oc2ccc(N3C(=O)C4CC=CCC4C3=O)cc2)cc1` (stereo unspecified) is higher in viability index: 0.853 for the first, 1.24 for the second.

First: CCOC(=O)c1cnc2c(C)cc(C)cc2c1Nc1ccc(C(C)=O)cc1
Second: Cc1cc(C)c2nc(SCC(=O)Nc3ccc4c(c3)OCCO4)cc(C)c2c1
The viability index of the first is lower: 0.693 for the first, 1.15 for the second.

First: Cc1cccc(NC(=O)c2ccc(NCCCC3CCCCCC3)c([N+](=O)[O-])c2)c1
Second: O=C(Nc1ccc(O)cc1)c1cccc(S(=O)(=O)N2CCCCC2)c1
The viability index of the first is higher: 1.18 for the first, 1.03 for the second.

Going from `COc1ccc(C2=C(c3ccc(OC)cc3)C3(c4ccccc4)C(=O)C2(c2ccccc2)C2C(=O)N(c4cc(Cl)ccc4C)C(=O)C23)cc1` (stereo unspecified) to `COc1cccc(C2C(C(=O)Nc3ccc(C)cc3C)=C(C)Nc3c(C(=O)Nc4ccccc4)cnn32)c1` (stereo unspecified), the viability index falls from 0.574 to 0.418.

First: CN(C)CCNc1ncnc2c1[nH]c1ccc(Cl)cc12
Second: CN(C)CCCNc1ncnc2c1[nH]c1ccc(Br)cc12
The viability index of the first is higher: 0.874 for the first, 0.682 for the second.

First: Cc1ccccc1OCC(O)Cn1c(NC2CCCCC2)nc2c1c(=O)[nH]c(=O)n2C (stereo unspecified)
Second: Oc1ccccc1Nc1nc(NC2CCCC2)c2ccccc2n1
The viability index of the first is higher: 0.932 for the first, 0.724 for the second.

Going from `O=C(c1ccc2nc(N3CCCCC3)sc2c1)N1CCN(Cc2ccccc2)CC1` to `Oc1ccc(-c2ccccn2)cc1CNC1CCN(Cc2ccccc2)CC1`, the viability index rises from 0.614 to 0.913.

First: S=P(OCC1C(COP(=S)(c2ccccc2)c2ccccc2)C1(Cl)Cl)(c1ccccc1)c1ccccc1 (stereo unspecified)
Second: O=C1CC(c2ccccc2)CC2=C1C(c1cccc(Cl)c1Cl)Nc1ccccc1N2 (stereo unspecified)
The viability index of the first is lower: 0.562 for the first, 0.842 for the second.

Going from `CCOC(=O)C1=C(C)NC2=C(C(=O)C(C(=O)OCC)C(c3cccc(OC)c3)C2)C1c1ccc([N+](=O)[O-])cc1` (stereo unspecified) to `CCOC(=O)C1=C(C)NC2=C(C(=O)CC(c3ccc(OC)cc3)C2)C1c1cccc(F)c1` (stereo unspecified), the viability index rises from 0.332 to 0.525.

First: CC(C)(C)c1ccc2[nH]c3c(c2c1)CCCC3=NO
Second: Cc1ccc2[nH]c3c(NCCN4CCCCC4)ncnc3c2c1
The viability index of the first is higher: 0.992 for the first, 0.587 for the second.

Compared with `CCCNC(=O)c1cc(NC(=O)c2cc(C(F)(F)F)cc(C(F)(F)F)c2)ccc1N1CCCCC1`, `O=C(CCl)Nc1ccc(CN2CCCCC2)cc1` is lower in viability index: 0.847 for the first, 0.239 for the second.

Compared with `CCN(CC)c1ccc(N=Cc2ccc(Sc3nc4ccccc4s3)o2)cc1`, `O=[N+]([O-])c1cccc(-c2ccc(C=NNc3nc4ccccc4[nH]3)o2)c1` is lower in viability index: 1.17 for the first, 1.15 for the second.

Compared with `CCNC(=O)NCCSc1nc(-c2ccccc2)c(-c2ccccc2)n1CC`, `CCc1ccccc1N1C(=O)CN(Cc2ccccc2)C1=S` is higher in viability index: 0.899 for the first, 1.24 for the second.

First: Nc1nonc1-n1nnc(C(=O)NN=Cc2ccc(F)c(Br)c2)c1-c1ccc([N+](=O)[O-])cc1
Second: CC1=NOC(=O)C1=Cc1ccc(-c2ccc([N+](=O)[O-])cc2)o1
The viability index of the first is higher: 0.95 for the first, 0.628 for the second.

First: CC(C)CNCc1cc(-c2ccc(F)cc2)ccc1O
Second: CC(=O)Nc1nc(-c2ccc(F)cc2)cs1
The viability index of the first is lower: 0.519 for the first, 1.07 for the second.

First: CCCCCCCn1c(=N)n(CC(O)c2ccc(Cl)c(Cl)c2)c2ccccc21 (stereo unspecified)
Second: O=C(CSc1nc2ccccc2[nH]1)Nc1ccc2c(c1)OCO2
The viability index of the first is lower: 0.358 for the first, 0.966 for the second.

First: Cc1nc(C23CC4CC(CC(C4)C2)C3)cs1
Second: Cc1cc2c(cc1S(=O)(=O)N1CCCCC1C)OCC(=O)N2 (stereo unspecified)
The viability index of the first is lower: 0.871 for the first, 1.11 for the second.

Going from `COc1ccc(-c2cc(C(F)(F)F)n3ncc(C(=O)Nc4cc(C)ccc4O)c3n2)cc1OC` to `O=C(Nc1cc(Oc2ccc(F)cc2)cc([N+](=O)[O-])c1)c1nc2nc(-c3ccccc3)cc(C(F)(F)F)n2n1`, the viability index rises from 0.706 to 0.815.

Compared with `COc1ccc(OC)c(-c2ccc(O)c(CN3CCC(c4ccccc4)CC3)c2)c1`, `COC(=O)c1sccc1S(=O)(=O)N1CCCC(c2[nH]ncc2-c2ccccc2)C1` (stereo unspecified) is higher in viability index: 0.587 for the first, 0.933 for the second.

First: CCOc1ccc2c(c1)sc(=NC(=O)Nc1ccc(OC)cc1)n2C
Second: CCOc1ccc(-c2cn3c(n2)sc2cc(C(=O)NCCN(CC)CC)ccc23)cc1
The viability index of the first is lower: 0.76 for the first, 0.904 for the second.

First: O=C(C1Cc2ccccc2CN1S(=O)(=O)c1ccc(F)cc1)N1CCOCC1 (stereo unspecified)
Second: Cc1oc2c(c1C(=O)N1CCN(C)CC1)C(=O)c1ccccc1C2=O
The viability index of the first is higher: 1.2 for the first, 0.43 for the second.

Compared with `Cc1cccc(N(C)c2nc3ccccc3c3nnc(C)n23)c1`, `Cc1cc(Nc2ccc(N(C)C)cc2)n2ncnc2n1` is higher in viability index: 0.859 for the first, 1.19 for the second.

First: CC[n+]1c(C=C2C=CN(C)C=C2)ccc2cc(C)ccc21
Second: Cc1cc(C)n(-c2ncc(-c3ccc([N+](=O)[O-])cc3)cn2)n1
The viability index of the first is lower: 0.743 for the first, 1.02 for the second.

Compared with `O=C(Nc1cccnc1)c1cc(-c2cccnc2)nc2ccc(Br)cc12`, `CCc1ccc(NC(=O)c2sc3nc(N)c(C#N)c(-c4ccc(OC)c(OC)c4)c3c2N)cc1` is higher in viability index: 0.841 for the first, 0.913 for the second.

Compared with `CCCCCCCSc1nsc(NC(=O)CCC)n1`, `CCOc1ccc2[nH]c3c(NCCCN(C)C)ncnc3c2c1` is higher in viability index: 0.885 for the first, 0.901 for the second.

First: C=CCC(=O)NC1CCN(CC(O)CN(Cc2ccccc2)S(=O)(=O)c2ccccc2)C1 (stereo unspecified)
Second: COc1ccc(CCNC(=O)c2cc(S(=O)(=O)N3CC(C)CC(C)C3)ccc2Sc2ccc(F)cc2)cc1OC (stereo unspecified)
The viability index of the first is lower: 0.667 for the first, 0.909 for the second.

Compared with `O=C1CCC(=O)N1c1ccc(CSc2nc3ccccc3[nH]2)cc1`, `O=C1c2cccc(N3CCCC(C(=O)N4CCCCC4c4cccnc4)C3)c2C(=O)N1Cc1ccc(C(F)(F)F)cc1` (stereo unspecified) is lower in viability index: 0.914 for the first, 0.865 for the second.

Compared with `O=C(C1CC1)N1CCc2cc(Br)cc(S(=O)(=O)N3CCCC3)c21`, `COc1ccc(-c2csc3ncnc(Cl)c23)cc1OC` is higher in viability index: 0.702 for the first, 0.837 for the second.

With `CN(C)c1ccc(C=NNc2ncnc3[nH]cnc23)cc1` the viability index was 0.76.
